Laboratory results published in PubChem BioAssay (NCATS).
Values joined by “and” are separate entries in the source; they are usually repeats but may differ in a detail not shown here. Identical values can stand only once. Inconclusive means that the source gave no clear call. Such entries were picked first, then a sample of the others. Where the call is inconclusive, the potency comes from a doubtful curve fit. Active and inactive are the calls of the source. Calls come from the whole dose curve; as a rule, active = well fitted inhibition curve with a large enough effect; inconclusive = small, poorly fitted or top-dose-only effect; inactive = flat fitted curve, though single readings scatter.

tested on: HEK293; experiment: Cytotoxic Profiling of Annotated Libraries Using Quantitative High-Throughput Screening (AID 1296008); conditions: Five cell lines viability, CellTiter-Glo ATP luminescence, 48-72 h; max response: stronger effect = lower value; note: nearly all actives have a fitted effect of over 60% in size
Outline: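 Compounds were pin-transferred onto cells and incubated 48 or 72 hr at 37 degree Celsius, 95% humidity. CellTiter-Glo was added, plates sat 10 min at room temperature, then ATP-coupled luminescence was imaged as the viability read-out.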
% is set by controls: 0 for no effect and ±100 for the full control effect; potency is the fitted concentration of half-maximal effect; tags give direction and shape of the fitted curve.

Structure (SMILES)	Potency	max response	outcome
CNC(=O)N1N=C(c2ccc(N)cc2)c2cc3c(cc2CC1C)OCO3 (stereo unspecified)	inconclusive: 20.9 µM [inhibitor, partial curve, poor fit]	–	–
CC#C[C@]1(O)CC[C@H]2[C@@H]3C[C@H](C)C4=CC(=O)CC[C@]4(C)[C@H]3CC[C@@]21C	active: 23.7 µM	–	–
O=C(Oc1ccc([N+](=O)[O-])cc1)N1CCC(C(O)(c2ccc3c(c2)OCO3)c2ccc3c(c2)OCO3)CC1	inconclusive: 29.1 µM [inhibitor, single point]	–	–
c1ccc(CCCN2CCN(CCOC(c3ccccc3)c3ccccc3)CC2)cc1	inconclusive: 26.4 µM [inhibitor, partial curve, poor fit]	–	–
Fc1ccc(C(OCCN2CCN(CCCc3ccccc3)CC2)c2ccc(F)cc2)cc1	active: 18.7 µM and active: 21.1 µM	–	–
COC[C@H]1OC(=O)c2coc3c2[C@@]1(C)C1=C(C3=O)[C@@H]2CC[C@H](O)[C@@]2(C)C[C@@H]1OC(C)=O	inconclusive: 37.2 µM [inhibitor, single point]	–	–
CN1C(=O)COc2c(C(=O)NC3CN4CCC3CC4)cc(Cl)cc21 (stereo unspecified)	–	inactive: -5.69% and inactive: -2.96%	–
C[C@H]1CN(Cc2ccc(CC(=O)N3CCC(Nc4cccc(F)c4)CC3)cc2)CCN1	active: 18.4 µM	–	–
C[C@@H](CN1CCC2(CC1)C(=O)NCN2c1cccc(F)c1)NC(=O)c1ccc(Br)cc1	inconclusive: 23.1 µM [inhibitor, single point]	–	–
CN1CCN(C(=O)O[C@H]2c3nccnc3C(=O)N2c2ccc(Cl)cn2)CC1	–	inactive: 3.04%	inactive
